Results taken from ChEMBL document CHEMBL1961873, “Compounds: GSK PKIS; Assays: Nanosyn kinase panel” (2012).
This is a selection; strong and weak results do not stand in their true shares.

Molecular target: T1, Serine/threonine-protein kinase D2 (Homo sapiens) (UniProt Q9BZL6)
T1 sequence (whole entry): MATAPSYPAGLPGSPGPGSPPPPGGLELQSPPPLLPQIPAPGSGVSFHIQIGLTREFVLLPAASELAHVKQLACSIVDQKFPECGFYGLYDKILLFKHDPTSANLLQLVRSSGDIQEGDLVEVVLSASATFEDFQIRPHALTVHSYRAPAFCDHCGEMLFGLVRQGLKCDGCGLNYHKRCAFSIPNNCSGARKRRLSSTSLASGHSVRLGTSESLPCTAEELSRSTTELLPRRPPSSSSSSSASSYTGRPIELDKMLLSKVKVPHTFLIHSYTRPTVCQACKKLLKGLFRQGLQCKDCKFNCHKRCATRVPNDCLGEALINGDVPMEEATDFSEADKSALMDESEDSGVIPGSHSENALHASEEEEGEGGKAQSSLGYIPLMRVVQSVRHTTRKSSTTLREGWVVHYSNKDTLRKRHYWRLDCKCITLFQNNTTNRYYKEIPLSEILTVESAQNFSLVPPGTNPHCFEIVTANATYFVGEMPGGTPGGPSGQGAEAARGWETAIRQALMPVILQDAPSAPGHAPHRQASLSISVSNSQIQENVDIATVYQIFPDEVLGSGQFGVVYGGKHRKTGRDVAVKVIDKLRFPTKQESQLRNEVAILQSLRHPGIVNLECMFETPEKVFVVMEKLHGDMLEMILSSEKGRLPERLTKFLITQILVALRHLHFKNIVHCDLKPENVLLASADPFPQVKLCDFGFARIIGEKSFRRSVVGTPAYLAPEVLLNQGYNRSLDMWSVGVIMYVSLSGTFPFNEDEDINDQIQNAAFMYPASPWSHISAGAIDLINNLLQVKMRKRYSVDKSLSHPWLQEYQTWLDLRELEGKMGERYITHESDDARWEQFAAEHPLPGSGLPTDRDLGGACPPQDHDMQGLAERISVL
Settings: at 0.1 µM
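Note: reported percent inhibition values are means, part of the GSK PKIS kinase panel screen.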

| Structure (SMILES) | inhibition [%] |
| --- | --- |
| O=C1NC(=O)C(c2ccccc2)=C1Nc1ccccc1 | 4.88 |
| CC(C)(C)c1ccc(Oc2nccc(-c3c(-c4ccc(F)cc4)ncn3C3CCNCC3)n2)cc1 | 3.64 |
| Cc1cccc(Oc2nccc(-c3c(-c4ccc(F)cc4)ncn3C3CCNCC3)n2)c1C | 5.84 |
| Fc1ccc(-c2ncn(C3CCNCC3)c2-c2ccnc(Oc3cccc(C(F)(F)F)c3)n2)cc1 | 4.73 |
| Fc1ccc(-c2ncn(C3CCNCC3)c2-c2ccnc(Oc3cccc(F)c3)n2)cc1 | 4.03 |
| O=C1NC(=O)C(c2ccccc2Cl)=C1Nc1cc(Cl)c(O)c(Cl)c1 | 2.37 |
| CS(=O)(=O)c1ccc(Oc2nccc(-c3c(-c4ccc(F)cc4)ncn3C3CCNCC3)n2)cc1 | 3.72 |
| COc1ccccc1C1=C(Nc2ccccc2)C(=O)NC1=O | 7.77 |
| COc1ccccc1Oc1nccc(-c2c(-c3ccc(F)cc3)ncn2C2CCNCC2)n1 | 6.22 |
| NC(=O)CCc1ccccc1Oc1nccc(-c2c(-c3ccc(F)cc3)ncn2C2CCNCC2)n1 | -1.3 |
| Fc1ccc(Oc2nccc(-c3c(-c4ccc(F)cc4)ncn3C3CCNCC3)n2)cc1 | -0.17 |
| O=C1NC(=O)C(c2cccc([N+](=O)[O-])c2)=C1Nc1cc(Cl)c(O)c(Cl)c1 | 3.15 |
| Fc1ccc(-c2ncn(C3CCNCC3)c2-c2ccnc(Oc3ccc(Cl)cc3)n2)cc1 | 1.44 |
| O=C(O)c1ccc(Oc2nccc(-c3c(-c4ccc(F)cc4)ncn3C3CCNCC3)n2)cc1 | 4.51 |
